Test results published in the supplement of paper PMC7125110.
Variants at the floor of the assay are shown more often than the library holds them.

B1: glmS ribozyme (parent)
chain: AUAAAAGCGCCAGAACUACAGAAAUGUAGUUGACGAGGAGGAGGUUUAUCGAAUUUUCGGCGGAUGCCUCCAAA

Assays:
Conditions in all cases: with glucosamine-6-phosphate
glucosamine-6-phosphate [1] = variants of: B1; assay: self-cleavage kobs at 40 uM GlcN6P; higher = faster cleavage; RNA array
Summary of the method: (§1)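 kcat and KM were obtained from weighted Michaelis–Menten fits across concentrations of kobs values. Those came from one- or two-exponential decay fits to per-tile medians normalised to baseline and to non-cleaving reference variants. The variants were barcoded ribozymes transcribed in situ by E. coli RNA polymerase on sequenced MiSeq chips and tracked through a hybridised Cy3 probe at 37 °C, with 40 μM to 10 mM glucosamine-6-phosphate in HEPES/KCl/Mg(OAc)2 buffer flowed in.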

glucosamine-6-phosphate [2] = variants of: B1; assay: self-cleavage kobs at 640 uM GlcN6P; higher = faster cleavage; RNA array
Summary of the method: as §1

glucosamine-6-phosphate [3] = variants of: B1; assay: self-cleavage kobs at 160 uM GlcN6P; higher = faster cleavage; RNA array
Summary of the method: as §1

glucosamine-6-phosphate [4] = variants of: B1; assay: self-cleavage kobs at 2500 uM GlcN6P; higher = faster cleavage; RNA array
Summary of the method: as §1

glucosamine-6-phosphate [5] = variants of: B1; assay: self-cleavage kobs at 10000 uM GlcN6P; higher = faster cleavage; RNA array
Summary of the method: as §1

AUAAAAGGGCCAGAACUACAGAAAUGUAGUUGACGAGGAGGAGGUUUGUCGAAUUUUCGGCGGAUGCCUCCAAA
< 1e-05 s⁻¹: self-cleavage kobs at 40 uM GlcN6P (glucosamine-6-phosphate [1]) | self-cleavage kobs at 640 uM GlcN6P (glucosamine-6-phosphate [2]) | self-cleavage kobs at 160 uM GlcN6P (glucosamine-6-phosphate [3]) | self-cleavage kobs at 2500 uM GlcN6P (glucosamine-6-phosphate [4])

AUAAAAGGGCCAGAACUACAGAAAUGUAGUUGACGAGGAGGAGGUUUAUCGACUUUUAGGCGGAUGCCUCCAAA
< 1e-05 s⁻¹: self-cleavage kobs at 40 uM GlcN6P (glucosamine-6-phosphate [1]) | self-cleavage kobs at 10000 uM GlcN6P (glucosamine-6-phosphate [5])

AUAAAAGGGCCAGAACUACAGAAAUGUAGUUGACGAGGAGGAGGUUUAUCGAUUUUUCGGCGGAUGCCUCCAAA
< 1e-05 s⁻¹: self-cleavage kobs at 40 uM GlcN6P (glucosamine-6-phosphate [1]) | self-cleavage kobs at 640 uM GlcN6P (glucosamine-6-phosphate [2]) | self-cleavage kobs at 10000 uM GlcN6P (glucosamine-6-phosphate [5])

AUAAAAGGGUCAGAACUACAGAAAUGUAGUUGACGAGGAUGAGGUUAAUCGAAUUUUCGGCGGAUCCUUCCAAA
< 1e-05 s⁻¹: self-cleavage kobs at 40 uM GlcN6P (glucosamine-6-phosphate [1]) | self-cleavage kobs at 2500 uM GlcN6P (glucosamine-6-phosphate [4]) | self-cleavage kobs at 10000 uM GlcN6P (glucosamine-6-phosphate [5])

AUAAAAGGGCCAGAACUACAGAAAUGUAGUUGAAGAGGAGGAGGUUUAUCGACUUUUCGCCGGAUGCCUCCAAA
< 1e-05 s⁻¹: self-cleavage kobs at 40 uM GlcN6P (glucosamine-6-phosphate [1]) | self-cleavage kobs at 640 uM GlcN6P (glucosamine-6-phosphate [2]) | self-cleavage kobs at 160 uM GlcN6P (glucosamine-6-phosphate [3]) | self-cleavage kobs at 2500 uM GlcN6P (glucosamine-6-phosphate [4])

AUAAAAGGGCCAGAACUACAGAAAUGUAGUUGAGGAGGAGGAGGUUUAUCGAAUUUUCGGCGGAUGCCUCCAAA
< 1e-05 s⁻¹: self-cleavage kobs at 40 uM GlcN6P (glucosamine-6-phosphate [1]) | self-cleavage kobs at 160 uM GlcN6P (glucosamine-6-phosphate [3]) | self-cleavage kobs at 2500 uM GlcN6P (glucosamine-6-phosphate [4]) | self-cleavage kobs at 10000 uM GlcN6P (glucosamine-6-phosphate [5])

AUAAAAGGGCCAGAACUACAGAAAUGUAGUUGACGAGGAGGAGGUUUAUCGAAUUUUCGGCGGAUGGCUCCAAA
< 1e-05 s⁻¹: self-cleavage kobs at 40 uM GlcN6P (glucosamine-6-phosphate [1]) | self-cleavage kobs at 640 uM GlcN6P (glucosamine-6-phosphate [2]) | self-cleavage kobs at 160 uM GlcN6P (glucosamine-6-phosphate [3]) | self-cleavage kobs at 2500 uM GlcN6P (glucosamine-6-phosphate [4]) | self-cleavage kobs at 10000 uM GlcN6P (glucosamine-6-phosphate [5])

AUAAAAGGGCCAGAACUACAGAAAUGUAGUUGACGAGGAGGAGGUUUAUCGAAUUUUCGGCGGAUGCCUCUAAA
< 1e-05 s⁻¹: self-cleavage kobs at 40 uM GlcN6P (glucosamine-6-phosphate [1]) | self-cleavage kobs at 640 uM GlcN6P (glucosamine-6-phosphate [2]) | self-cleavage kobs at 160 uM GlcN6P (glucosamine-6-phosphate [3]) | self-cleavage kobs at 2500 uM GlcN6P (glucosamine-6-phosphate [4]) | self-cleavage kobs at 10000 uM GlcN6P (glucosamine-6-phosphate [5])

AUAAAAGGACCAGAACUACAGAAAUGUAGUUGACGAGGUGGAGGUUGAUCGAAUUUUCGGCGGAUGCUUCCAAA
< 1e-05 s⁻¹: self-cleavage kobs at 40 uM GlcN6P (glucosamine-6-phosphate [1])

AUAAAAGGACCAGAACUACAGAAAUGUAGUUGACGAGGAGGAGGUUUAUAGAAUUUUCGGCGGAUGCCUCCAAA
< 1e-05 s⁻¹: self-cleavage kobs at 40 uM GlcN6P (glucosamine-6-phosphate [1]) | self-cleavage kobs at 640 uM GlcN6P (glucosamine-6-phosphate [2])

AUAAAAGGGCCACAACUACAGAAAUGUAGUUGACGAGGAAGAGGUUUAUCGAAUUUUCGGCGGAUGCCUCCAAA
< 1e-05 s⁻¹: self-cleavage kobs at 40 uM GlcN6P (glucosamine-6-phosphate [1]) | self-cleavage kobs at 10000 uM GlcN6P (glucosamine-6-phosphate [5])

AUAAAAGGGCCACAACUACAGAAAUGUAGAUGACGACGAGGAGGUUUAUCGAAUUUUCGGCGGAUGCCUCCAAA
< 1e-05 s⁻¹: self-cleavage kobs at 40 uM GlcN6P (glucosamine-6-phosphate [1])

AUAAAAGGGCCAGAACUACAGAAAUGUAGUUGACAAGGAGGAGGUUUAUCGAAUUUUGGGCGGAUGCCUCCAAA
< 1e-05 s⁻¹: self-cleavage kobs at 40 uM GlcN6P (glucosamine-6-phosphate [1])

AUAAAAGGGCCAGAACUACAGAAAUGUAGUUGACAAGGAGGAGGUGUAUCGAAUUUUCGGCGGAUGCCUCCAAA
< 1e-05 s⁻¹: self-cleavage kobs at 40 uM GlcN6P (glucosamine-6-phosphate [1]) | self-cleavage kobs at 2500 uM GlcN6P (glucosamine-6-phosphate [4]) | self-cleavage kobs at 10000 uM GlcN6P (glucosamine-6-phosphate [5])

AUAAAAGGGCCAGAACUACAGAAAUGUAGUUGACGAGGAGGACGUUUAUCGAAUUUUCGGCGGAUGCCUCCAAA
< 1e-05 s⁻¹: self-cleavage kobs at 40 uM GlcN6P (glucosamine-6-phosphate [1])

AUAAAAGGGCCAGAACUACAGAAAUGUAGUUGACGAGGAGGAGGUUUAUCAAAUUUUCGGCGGAUGCCUCCAAA
< 1e-05 s⁻¹: self-cleavage kobs at 40 uM GlcN6P (glucosamine-6-phosphate [1]) | self-cleavage kobs at 640 uM GlcN6P (glucosamine-6-phosphate [2]) | self-cleavage kobs at 160 uM GlcN6P (glucosamine-6-phosphate [3]) | self-cleavage kobs at 2500 uM GlcN6P (glucosamine-6-phosphate [4]) | self-cleavage kobs at 10000 uM GlcN6P (glucosamine-6-phosphate [5])

AUAAAAGGGCCAGAACUACAGAAAUGUAGUUGACGAGGAGGAGGUUUAUCGAAUUUUCGCCGGAUGCCUCCAAA
< 1e-05 s⁻¹: self-cleavage kobs at 40 uM GlcN6P (glucosamine-6-phosphate [1]) | self-cleavage kobs at 160 uM GlcN6P (glucosamine-6-phosphate [3]) | self-cleavage kobs at 10000 uM GlcN6P (glucosamine-6-phosphate [5])

AUAAAAGGGCCAGAACUACAGAAAUGUAGAUGACGAGGAGGAGGUUUAUCGAAUUUUCGGCGGAUGCCUCCAAA
< 1e-05 s⁻¹: self-cleavage kobs at 40 uM GlcN6P (glucosamine-6-phosphate [1]) | self-cleavage kobs at 640 uM GlcN6P (glucosamine-6-phosphate [2]) | self-cleavage kobs at 160 uM GlcN6P (glucosamine-6-phosphate [3]) | self-cleavage kobs at 10000 uM GlcN6P (glucosamine-6-phosphate [5])

AUAAAAGGGCCAGAACUACAGAAAUGUAGUCGGCGAGGAGGAGGUUUAUCGAAUUUUCGGCGGAUGCCUCCAAA
< 1e-05 s⁻¹: self-cleavage kobs at 40 uM GlcN6P (glucosamine-6-phosphate [1]) | self-cleavage kobs at 160 uM GlcN6P (glucosamine-6-phosphate [3]) | self-cleavage kobs at 2500 uM GlcN6P (glucosamine-6-phosphate [4])

AUAAAAGGGCCAGAACUACAGAAAUGUAGUUGACGAGGAGGAGGGUUAUCGAAUUUUCGGCGGAUGCCUCCAAA
< 1e-05 s⁻¹: self-cleavage kobs at 40 uM GlcN6P (glucosamine-6-phosphate [1]) | self-cleavage kobs at 640 uM GlcN6P (glucosamine-6-phosphate [2]) | self-cleavage kobs at 160 uM GlcN6P (glucosamine-6-phosphate [3]) | self-cleavage kobs at 2500 uM GlcN6P (glucosamine-6-phosphate [4]) | self-cleavage kobs at 10000 uM GlcN6P (glucosamine-6-phosphate [5])

AUAAAAGGGCCAGAACUACAGAAAUGUAGUUGACGAGGAGGAGGUGUAUCGAAUUUUCCGCGGAUGCCUCCAAA
< 1e-05 s⁻¹: self-cleavage kobs at 40 uM GlcN6P (glucosamine-6-phosphate [1]) | self-cleavage kobs at 160 uM GlcN6P (glucosamine-6-phosphate [3]) | self-cleavage kobs at 10000 uM GlcN6P (glucosamine-6-phosphate [5])

AUAAAAGGGCCAGAACUACAGAAAUGUAGUUGACGAGGAGGAGGUUAAUCGAAUUUUCGGCGGAUGCCUCCAAA
< 1e-05 s⁻¹: self-cleavage kobs at 40 uM GlcN6P (glucosamine-6-phosphate [1]) | self-cleavage kobs at 640 uM GlcN6P (glucosamine-6-phosphate [2]) | self-cleavage kobs at 160 uM GlcN6P (glucosamine-6-phosphate [3]) | self-cleavage kobs at 2500 uM GlcN6P (glucosamine-6-phosphate [4]) | self-cleavage kobs at 10000 uM GlcN6P (glucosamine-6-phosphate [5])

AUAAAAGGGCCAGAACUACAGAAAUGUAGUUGACGAGGAGGAGGUUUAUCGAAUUUUCGGCGGAGGCCUCCAAA
< 1e-05 s⁻¹: self-cleavage kobs at 40 uM GlcN6P (glucosamine-6-phosphate [1]) | self-cleavage kobs at 640 uM GlcN6P (glucosamine-6-phosphate [2]) | self-cleavage kobs at 160 uM GlcN6P (glucosamine-6-phosphate [3]) | self-cleavage kobs at 2500 uM GlcN6P (glucosamine-6-phosphate [4]) | self-cleavage kobs at 10000 uM GlcN6P (glucosamine-6-phosphate [5])
